For 114 compounds, z-score results are on record in PubChem BioAssay AID488969 (Vanderbilt High Throughput Screening Facility, 2010).

Molecules are shown by their SMILES. The full ranking holds about 110,000 compounds; the median of “z-score” is about -0.1, and the highest 2% start at about 2. The list shows a part of the results. The source made the active and inactive calls.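 The calls were made as follows: active = z-score in the third read window above 3 or below -3; inactive = the rest.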

This test has as its target Metabotropic glutamate receptor 8 (Rattus norvegicus) (UniProt P70579). In words: rat mGluR8 modulators via GIRK flux, primary screen, cell-based, thallium flux, HTS (AID 488969). Particulars: HEK293 rat mGluR8, GIRK (G protein-gated inwardly rectifying potassium channel) thallium flux, FluoZin2; at 10 µM; stronger effect = higher value; submaximal glutamate (EC20) added with thallium.
Sequence of UniProt P70579 (P70579 whole entry, looked up): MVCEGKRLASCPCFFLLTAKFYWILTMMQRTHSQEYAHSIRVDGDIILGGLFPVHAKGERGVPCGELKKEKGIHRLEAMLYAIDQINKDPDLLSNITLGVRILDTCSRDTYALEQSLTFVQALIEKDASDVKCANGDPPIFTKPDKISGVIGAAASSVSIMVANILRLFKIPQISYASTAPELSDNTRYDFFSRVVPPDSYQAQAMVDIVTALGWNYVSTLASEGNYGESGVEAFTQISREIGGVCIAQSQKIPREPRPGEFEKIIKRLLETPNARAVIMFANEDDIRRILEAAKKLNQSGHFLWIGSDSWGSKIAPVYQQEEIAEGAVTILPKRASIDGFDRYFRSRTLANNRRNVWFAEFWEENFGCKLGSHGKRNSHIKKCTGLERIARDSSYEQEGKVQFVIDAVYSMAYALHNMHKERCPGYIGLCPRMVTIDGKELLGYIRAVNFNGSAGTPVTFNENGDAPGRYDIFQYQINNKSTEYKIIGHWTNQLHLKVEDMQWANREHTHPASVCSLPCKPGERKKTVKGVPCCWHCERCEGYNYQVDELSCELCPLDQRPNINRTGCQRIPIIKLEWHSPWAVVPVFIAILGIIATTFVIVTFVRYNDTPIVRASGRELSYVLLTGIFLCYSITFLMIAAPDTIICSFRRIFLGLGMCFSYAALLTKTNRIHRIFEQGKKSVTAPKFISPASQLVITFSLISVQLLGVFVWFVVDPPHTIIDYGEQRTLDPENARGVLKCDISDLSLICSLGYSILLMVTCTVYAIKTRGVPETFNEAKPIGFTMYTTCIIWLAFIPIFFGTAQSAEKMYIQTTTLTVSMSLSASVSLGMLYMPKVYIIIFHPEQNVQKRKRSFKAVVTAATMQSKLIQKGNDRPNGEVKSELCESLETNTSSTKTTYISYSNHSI
For the compound `Cc1ccc(S(=O)(=O)Nc2ccncc2)c(C)c1N(C)S(=O)(=O)c1ccc(Cl)cc1`, the z-score was -0.067. In turn, `CC(=O)N1CCN(S(=O)(=O)c2ccc(S(=O)(=O)NC3CC3)cc2)CC1` had a z-score of 2.05. As for `COc1ccc(CNS(=O)(=O)c2ccc3oc(C(=O)O)c(C)c3c2)cc1`, the z-score was -0.327.

With `Cc1ccc(C(C)C)c(OC(=O)/C=C/c2ccccc2)c1`, the z-score is -0.343.

As to `COc1cc(O)c(NC(C)=O)c2nonc12`, the z-score amounted to 0.0415. With `Cc1ccc(C)c(C(=O)COC(=O)c2cc(Cl)nc3ccccc23)c1`, the z-score was -0.403. `CN=c1scc(C)n1/N=C/c1ccc(O)c(O)c1O`: the z-score is -0.648. As to `CC(=O)C1=C(O)C(=O)N(CCC(=O)O)C1c1ccc(Cl)cc1Cl` (centres undefined), the z-score was -0.223.

On to `O=S(=O)(NCCc1ccccc1)c1cccc(S(=O)(=O)N2CCOCC2)c1`, for which the z-score was 0.51. Turning to `CCOc1ccc2c(c1)c(N=Nc1cccc(C(=O)O)c1)c(O)n2C`, the z-score was -0.0674. `CCO/C(C)=C1\C(=O)Nc2ccccc21` came in with a z-score of 0.866. Turning to `CCCCn1c(SCc2ccccn2)nc2c1c(=O)n(C)c(=O)n2C`, the z-score was -0.565. With `Cc1csc(SCCN2C(=O)c3ccccc3C2=O)n1`, the z-score came out at 0.307. As to `O=C(Nc1ccccc1)c1cccc(C(F)(F)F)c1`, the z-score is -0.053. Regarding `Cc1cc(/C=C(\C#N)C(=O)NC2CCCCCC2)c(C)n1C`, the z-score was -0.213.

In the case of `CC(=O)c1ccc(N2CCN(C(=O)COc3ccccc3F)CC2)c(F)c1`, the z-score is -0.0743. For `C=CCN1CCN(c2ccncc2S(=O)(=O)N2CCOCC2)CC1` the value was -0.213; for `CC(=O)NC(O)C(=O)c1ccccc1` (centres undefined), 0.403. Turning to `CCOC(=O)N1CCN(CC(=O)Nc2cccc(Br)c2)CC1`, the z-score worked out at 0.0335. In the case of `Cc1cccc(NC(=O)c2ccccc2OCC(=O)N2CCOCC2)c1C`, the z-score was -0.0706.

For `NC(=O)CCCc1nc(-c2ccccc2Cl)no1`, the z-score is -0.0666. The compound `O=C(O)Cn1c(SCc2ccccc2)nc2ccccc21` gave a z-score of 0.00596. With `COc1ccc(/C=N/O)cc1COc1ccc(NC(C)=O)cc1`, the z-score was 0.551. `O=C(Cc1c[nH]c2ccccc12)NNC(=O)c1ccccc1`: the z-score is 0.804.

In the case of `Cc1cccc(NC(=S)NCCCN2CCOCC2)c1`, the z-score is -0.387. Turning to `CSc1ccccc1NC(=O)CSCc1ccc(C)cc1`, the z-score is -0.385.

Regarding `COc1ccc(N=Cc2cc3c(cc2O)OC(N)=C(C#N)C3c2ccccc2)cc1` (centres undefined), the z-score was -1.18. With `CCN(C(C)=O)N(CC)c1nc(Cl)nc(NC(C)C)n1`, the z-score is -0.158.

For the compound `CCCC(=O)Nc1ccc(C(=O)N/N=C/c2cccnc2)cc1`, the z-score was -0.18. `Cc1onc(-c2ccccc2)c1C(=O)NCCc1ccc(Cl)cc1` showed a z-score of 0.00877. With `COc1ccc(CNc2nc3nc(C)c(Cl)c(=O)n3[nH]2)cc1OC`, the z-score came to 0.803.

Turning to `Cc1sc2nc(CN(C(=O)NC3CCCCC3)C3CCCC3)[nH]c(=O)c2c1C`, the z-score was -0.352. `O=C(CN(CCO)c1ccccc1)NC12CC3CC(CC(C3)C1)C2` gave a z-score of 0.0711.

The compound `Cc1nc2ccccc2c(=O)n1/N=C/c1ccc(O)cc1` displayed a z-score of 0.481. For `O=C(CSc1nc2c(sc3ccccc32)c(=O)n1CCCN1CCCC1)NCC1CCCO1` (centres undefined), the z-score is 0.527. With `O=C1CC(c2ccccc2)CC(O)=C1C=Nc1ccc(Cl)cc1` (centres undefined), the z-score was -0.141. `S=C(Nc1ccccc1)N1CCn2c1nc1ccccc12`: the z-score is -0.0841. As for `COc1ccc(/C=N/n2c(C)nnc2C)c(OC)c1OC`, the z-score was -0.332. The compound `CCOC(=O)N1CCN(Cc2nc3c(c(=O)n(C)c(=O)n3C)n2Cc2cccc(C)c2)CC1` displayed a z-score of 0.299.

On to `c1ccc(Cn2c(CN3CCCC3)nc3ccccc32)cc1`, for which the z-score was -0.186. Consider `CCOC(=O)N1CCN(C(=O)CSc2nnc(CNC(=O)c3c(F)cccc3Cl)o2)CC1`, for which the z-score was -0.28.

With `COc1cc2c(cc1OC)C(C(=O)O)C(c1ccc(C)o1)N(C)C2=O` (centres undefined), the z-score is -0.00596. For `Cc1ccc(NC(=O)c2ccc(S(=O)(=O)NCC3CCCO3)cc2)cc1` (centres undefined) the value was -0.255. As to `CCCn1c(=O)c2ccccc2n2c(SCC(=O)c3ccccc3)nnc12`, the z-score was -2.52. With `Cc1ccc(NC(=S)N(CCN2CCCCC2)Cc2ccco2)cc1`, the z-score turned out to be 0.265. Regarding `Cc1ccc(C)c(NC(=O)CSc2ccc(-c3cccs3)nn2)c1`, the z-score came out at 0.199. Take `Cc1ccccc1NC(=S)NCC(c1cccnc1)N(C)C` (centres undefined): the z-score was -0.204. With `O=C(Cn1c(=O)sc2ccccc21)NCc1ccco1`, the z-score is -0.176. To `NC1=NC2(CCCCC2)N=C(Nc2ccc(F)cc2F)N1` belongs -0.173; to `COc1ccc(SCC(=O)c2cc(C)c(OC(=S)N(C)C)c(C)c2)cc1`, 0.125. For `CCOC(=O)/C(C(N)=NCc1ccco1)=C(/O)c1ccccc1` the value was -0.494. The compound `CCC(CC)C(=O)Nc1nc(-c2ccc3c(c2)CCN3C(=O)C2CC2)c(C)s1` showed a z-score of 0.662.

For `C=CCOc1ccc(C2NC(=S)NC(C)=C2C(=O)c2ccccc2)cc1OC` (centres undefined), the z-score was -0.483. For `CCC1CCc2c(sc(NC(=O)C3CC=CCC3C(=O)O)c2C#N)C1` (centres undefined) the value was -0.313; for `Cc1cccc(C)c1-n1nnnc1C1(Nc2ccccc2)CCCCC1`, -0.148; for `Brc1ccc2ncnc(Nc3cccc4ccccc34)c2c1`, -0.494.

Regarding `Cc1n[nH]c(=O)nc1NC1CCCCC1`, the z-score was -0.101. On to `CC(C)Nc1nc(SCC(=O)Nc2ccccc2)nc(N2CCOCC2)n1`, for which the z-score is -0.25.

In the case of `O=c1cc(-c2ccccc2)c2ccc(O)c(CN3CCCCC3)c2o1`, the z-score was -0.562. On to `Cc1ccccc1NC(=O)c1ccc(-n2cncn2)nc1`, for which the z-score was -0.0846. Compound `CSc1nc(C)c2c(n1)N(c1ccc(C(F)(F)F)cc1)CC2` yielded a z-score of 0.0153.

For the compound `COc1cc(/C=C2\C(=O)N(c3ccccc3)N=C2C)ccc1Oc1ccc([N+](=O)[O-])cc1[N+](=O)[O-]`, the z-score was -0.164.

As for `c1ccc(COc2ccc(Nc3ncnc4nc[nH]c34)cc2)cc1`, the z-score was 0.0418. `COc1ccc(CCNC(=O)CSc2ccc3ccccc3c2)cc1OC` returned a z-score of 0.159. As for `CC(=O)C(CC(=O)N1CCCc2ccccc21)C(=O)Nc1ccc(F)cc1` (centres undefined), the z-score was -0.605. Consider `Cc1ccc(C)c(NC(=S)NNC(=O)c2csc(C(C)C)c2)c1`, for which the z-score was active: 12. `Nn1c(-c2cccc(Br)c2)n[nH]c1=S`: the z-score was -0.267. Compound `COc1ccc(C(=O)NCc2cccnc2)cc1` showed a z-score of 0.111. Turning to `CC1CCCC(C)N1C(=O)CSc1nc2ncnc(N)c2[nH]1` (centres undefined), the z-score was -0.0584. On to `CC(C)CCn1c(O)c(N=NC(=O)Cn2ccc(C(F)(F)F)n2)c2ccccc21`, for which the z-score came out at 0.0142.

For the compound `Cc1ccc2c(c1)c1c(n2CC(O)Cn2ccnc2C)C(=O)CCC1` (centres undefined), the z-score was found to be 0.314. With `O=c1c2ccccc2[nH]c(=S)n1-c1cccc(S(=O)(=O)N2CCCC2)c1`, the z-score is -0.0499.

Regarding `COc1ccc(N2C(=O)c3ccccc3NC2c2ccc(OC)c(Cn3nnc4ccccc43)c2)cc1` (centres undefined), the z-score is -0.206. On to `O=C(c1ccccc1)c1cccn1CC(=O)N1CCN(c2ccccc2)CC1`, for which the z-score was -0.233. For `Cc1ccc(O)c(-c2cc(-c3ccccc3[N+](=O)[O-])[nH]n2)c1`, the z-score was -0.0176. For `Cc1ccc(SC(C)c2nc(-c3ccncc3)no2)cc1` (centres undefined), the z-score was -0.0796.

Regarding `C=CCn1c(=O)[nH]c2cc(C(=O)N3CCN(c4ccc(C(C)=O)cc4)CC3)ccc2c1=O`, the z-score was -0.507. On to `COC(=O)CC(=O)CSc1nc2c(cc1C#N)CCCCC2`, for which the z-score was -0.364. For `Cc1nc2nc[nH]n2c(=O)c1NS(C)(=O)=O` the value was 0.544; for `Cc1cc(O)c(/C=N/Nc2ccccc2)c(=O)o1`, -0.248; for `Cc1cc(/C=C2/SC(=O)N(CC(=O)N3CCOCC3)C2=O)c(C)n1-c1ccccc1F`, -0.362. For `CCN(CC)C(=O)CSc1nnc(CNc2ccc(F)cc2)n1-c1ccccc1`, the z-score worked out at 0.0593. Regarding `Cc1cccc(OCC(=O)O/N=C(\N)Cc2cccs2)c1`, the z-score is -0.706.

Take `COc1ccccc1NC(=S)NN1CCN(C)CC1`: the z-score was -0.238.

With `COc1ccc(-n2c(C)cc(C(=O)NC3CCCCC3)c2C)cc1`, the z-score was -0.564. In the case of `Cc1ccccc1NC(=O)c1ccc(NC(=O)c2ccco2)cc1`, the z-score came to 0.0446. Consider `N#CC1=C(N)Oc2n[nH]c(-c3cccs3)c2C1C1CCCCC1` (centres undefined), for which the z-score is -0.253. `Cc1cccc(CSc2nc(N)c(C#N)c(-c3cccs3)c2C#N)c1`: the z-score worked out at 0.0419. Turning to `Cc1cccc(C)c1OCC(=O)OC/C(O)=C(\C#N)c1nc2ccccc2[nH]1`, the z-score is -0.226. In the case of `CCCC(=O)c1c[nH]c(C(=O)NCCCN2CCOCC2)c1`, the z-score is 0.501. On to `CCOC(=O)C(NC(=O)NCc1ccc(F)cc1)(OCC)C(F)(F)F` (centres undefined), for which the z-score was -0.337. `O=C(CS(=O)(=O)c1cccc(Cl)c1)Nc1ccccc1Cl`: the z-score was -0.0905. To `Cn1c(=O)c2c(nc(CN3CCN(C(=O)c4ccco4)CC3)n2CCc2ccccc2)n(C)c1=O` belongs -0.658; to `CCCCN(C(=O)CCC(=O)Nc1cc(C)on1)C(C(=O)NC(C)(C)C)c1cccc(OC)c1OC` (centres undefined), -0.255; to `CCCCn1c(-c2ccco2)nc2ccccc2c1=O`, -0.339. The compound `C=CCc1cccc(/C=N/c2nc3ccccc3n2CC)c1O` yielded a z-score of 0.37.

In turn, `CCc1ccccc1OCC(=O)NC1CCCC1` yielded a z-score of 0.237. As to `CCn1cc(C2=NC(C)(C)CO2)c2ccccc21`, the z-score is -0.521. For the compound `O=C(CCSCCC(=O)NCc1ccccc1)NCc1ccccc1`, the z-score is -0.211.

`CCOCc1cn(CC(=O)c2ccc([N+](=O)[O-])cc2)c(C)nc1=N` returned a z-score of 0.0311. As to `Cc1ccc(NC(=O)COc2ncnc3c(Cl)cc(Cl)cc23)cc1[N+](=O)[O-]`, the z-score came out at 0.201. In the case of `O=C(c1ccc(Cl)cc1)c1coc2ccc(O)cc12`, the z-score was -0.122.

In turn, `CCOC(=O)C1=C(C)Nc2ncnn2C1c1cccnc1` (centres undefined) yielded a z-score of 0.582. Regarding `Cc1cccc(N2CCN(C(=O)COc3ccc4c(c3)CCC4)CC2)c1C`, the z-score is -0.161. To `CCn1c(=O)cc(SCC(=O)Nc2cccc(SC)c2)c2ccccc21` belongs -0.136. Take `COc1cc(OC)cc(C(=O)N(CCCN2C(=O)c3cccc4cccc(c34)C2=O)c2cccc(OC)c2)c1`: the z-score is -0.716. For `Cc1noc(C)c1S(=O)(=O)Nc1ccc(C(=O)NC2CCCCC2)cc1` the value was -0.119. `C=CCn1c(SCC(N)=O)nc(C)cc1=O`: the z-score is -0.11. Compound `CCOC(=O)CSc1nc2ccc(C)cc2[nH]1` returned a z-score of 0.0515. For `CN(c1ccc(C(=O)NCCc2ccccc2)cc1)S(C)(=O)=O` the value was -0.314; for `Cc1ccc(S(=O)(=O)N/N=C/c2c(F)cccc2Cl)cc1`, -0.033.

For `Cc1ccc(C(C2=C(O)CC(C)(C)CC2=O)C2C(=O)CC(C)(C)CC2=O)o1` (centres undefined), the z-score was -0.185. To `O=S(=O)(c1ccccc1)c1cnn(-c2ccccc2)c1-c1ccc(Cl)cc1` belongs 0.166; to `COCCSc1ccccc1C(=O)NCC1CCCO1` (centres undefined), 0.715.
